Data: PubChem BioAssay AID488969 (Vanderbilt High Throughput Screening Facility, 2010)
The full ranking holds about 110,000 compounds; the median of “z-score” is about -0.1, and the highest 2% start at about 2. This is one part of the list. Activity calls are given as the source filed them.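 Rule for the calls: active = z-score in the third read window above 3 or below -3; inactive = the rest.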

The molecules below were run against Metabotropic glutamate receptor 8 (Rattus norvegicus) (UniProt P70579) (assay: rat mGluR8 modulators via GIRK flux, primary screen, cell-based, thallium flux, HTS (AID 488969)). Settings: HEK293 rat mGluR8, GIRK (G protein-gated inwardly rectifying potassium channel) thallium flux, FluoZin2; at 10 µM; stronger effect = higher value; submaximal glutamate (EC20) added with thallium.
UniProt P70579, sequence (P70579 whole entry, looked up): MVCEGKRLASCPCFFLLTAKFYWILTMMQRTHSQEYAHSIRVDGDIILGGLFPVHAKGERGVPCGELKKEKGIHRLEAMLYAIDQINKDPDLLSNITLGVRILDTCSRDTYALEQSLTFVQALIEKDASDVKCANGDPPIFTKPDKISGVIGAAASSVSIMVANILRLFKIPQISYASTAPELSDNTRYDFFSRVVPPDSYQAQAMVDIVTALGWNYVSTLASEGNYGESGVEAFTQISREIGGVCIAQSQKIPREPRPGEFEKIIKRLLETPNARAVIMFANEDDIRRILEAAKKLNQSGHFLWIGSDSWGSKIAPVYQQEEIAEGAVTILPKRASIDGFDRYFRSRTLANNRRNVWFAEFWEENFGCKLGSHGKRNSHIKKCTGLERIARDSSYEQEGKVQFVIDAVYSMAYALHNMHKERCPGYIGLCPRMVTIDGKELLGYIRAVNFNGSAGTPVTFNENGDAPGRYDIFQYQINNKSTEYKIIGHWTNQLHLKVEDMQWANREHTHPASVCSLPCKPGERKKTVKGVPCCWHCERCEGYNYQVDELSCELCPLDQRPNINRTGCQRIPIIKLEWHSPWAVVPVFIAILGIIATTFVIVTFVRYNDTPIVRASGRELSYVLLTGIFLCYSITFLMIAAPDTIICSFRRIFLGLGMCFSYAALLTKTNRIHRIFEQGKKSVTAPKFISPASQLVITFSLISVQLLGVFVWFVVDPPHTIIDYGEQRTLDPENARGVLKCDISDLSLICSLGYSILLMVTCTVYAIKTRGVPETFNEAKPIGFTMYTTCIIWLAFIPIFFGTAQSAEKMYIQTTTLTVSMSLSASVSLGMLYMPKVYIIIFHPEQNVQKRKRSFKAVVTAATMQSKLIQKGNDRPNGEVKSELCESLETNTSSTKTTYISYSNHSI
Work on `Oc1ccc2[nH]ccc2c1` yielded a z-score of -0.478. For `CCNc1nc(NCC)nc(SCCOC(=O)c2ccccc2)n1`, the z-score was -0.297. `CCC(=O)Nc1cc(C)c(NC(=O)C23CC4CC(CC(C4)C2)C3)cn1` showed a z-score of 0.0544. Work on `O=C1N/C(=N\N=C\c2cccnc2)SC1Cc1ccc(SC(F)F)cc1` (configuration not stated) yielded a z-score of -0.21. With `O=C(c1cccc([N+](=O)[O-])c1)c1cc2ccccc2o1` the z-score was -0.0823. With `O=C(NC1CCc2ccccc21)C12CN(Cc3ccccc3)CC1C(c1cccc([N+](=O)[O-])c1)=NO2` (configuration not stated) the z-score was -0.093. `CCOC(=O)C(NC(=O)c1ccc(F)cc1)(Nc1sc2c(c1C(N)=O)CCC2)C(F)(F)F` (configuration not stated) gave a z-score of -0.109. `CCn1c(SCC(N)=O)nnc1-c1ccc(S(=O)(=O)N2CCN(C)CC2)cc1` gave a z-score of -0.217. `O=C(Oc1ccc2c(=O)c(Cl)coc2c1)c1cccnc1` gave a z-score of 0.575. `O=C(CN(c1ccc(F)cc1)S(=O)(=O)c1ccc2c(c1)OCCO2)NCc1ccncc1` was tested, and the z-score was 0.0449. `COc1ccccc1NC(=O)Cc1csc(NC(=S)Nc2ccccc2)n1` was tested, and the z-score was -0.494. Molecule `c1ccc(-n2c(SCC3CCCCO3)nnc2-c2cnccn2)cc1` (configuration not stated) has a z-score of -0.259. Work on `CC(C)(NC(=O)N1CCOCC1)c1cccc(C(C)(C)NC(=O)N2CCOCC2)c1` yielded a z-score of -0.126. Molecule `Clc1ccc(CSc2ncccn2)cc1` has a z-score of -0.0589. With `CC(C)COC(=O)n1c(SCC(=O)N(C)C)nc2ccccc21` the z-score was -0.139. `Cc1ccccc1NC(=O)c1cccc(Cn2cc(Br)c([N+](=O)[O-])n2)c1` was tested, and the z-score was -0.0624. With `Cc1ccc2cccc(S(=O)(=O)N3CCN(c4ccccc4F)CC3)c2n1` the z-score was 1.15. In the case of `CCOC(=O)N1CCN(C(=O)C2CCN(S(=O)(=O)CC)CC2)CC1`, the z-score was 0.328. `COc1ccc(CN(CC(=O)NCC2CCCO2)C(=O)CCC(=O)Nc2cc(C)on2)cc1` (configuration not stated) showed a z-score of -0.352. Work on `CCC1(C(=O)c2ccccc2)C(c2ccc([N+](=O)[O-])cc2)C1(C(=O)OC)C(=O)OC` (configuration not stated) yielded a z-score of 0.155. Work on `CCCCOc1ccc(C2C(C(=O)c3ccc(C)o3)=C(O)C(=O)N2CC2CCCO2)cc1` (configuration not stated) yielded a z-score of 0.358. Work on `COP(=O)(OC)c1nc(-c2cccc3ccccc23)oc1N1CCOCC1` yielded a z-score of -0.168. Work on `CCn1c(SCC(=O)N/N=C/c2ccc(C)o2)nnc1-c1ccc(C(C)(C)C)cc1` yielded a z-score of -0.445. `COC(=O)c1ccc(CSc2nnc(CNC(=O)COc3ccc(Cl)cc3)o2)o1` gave a z-score of -0.282. `COc1ccc(OC)c(C(=O)CSc2nccc(-c3ccc(Br)cc3)n2)c1` was tested, and the z-score was -0.268. `CC12CN(C(=O)c3ccco3)CC(c3ccccc3)(CN(C(=O)c3ccco3)C1)C2=O` gave a z-score of 0.0373. `COc1ccc(NC2=NCC(=O)N2c2ccccc2)c(OC)c1` gave a z-score of -0.3. For `CCCC(CCC)C(=O)NCCN1CCOCC1`, the z-score was -0.871. Molecule `CCOc1ccc(NC(=O)C2CCCN(C(=O)Nc3ccccc3)C2)cc1` (configuration not stated) has a z-score of -0.687. Molecule `CCCCCCn1cnc2c(oc3nc4c(cc32)CCCC4)c1=O` has a z-score of 0.165. `O=c1[nH]cnc2scc(-c3ccccc3)c12` was tested, and the z-score was 0.259. Work on `COc1ccc(N2C(=O)CSC23C(=O)N2c4c(cccc43)C(C)=CC2(C)C)cc1` (configuration not stated) yielded a z-score of -0.0488. With `COc1ccccc1-n1c(C)nc2cc(C(=O)O)ccc21` the z-score was -0.184. Work on `COc1ccc(-n2c(O)c(Cc3ccccc3)c(=O)n3nc(-c4ccccc4)c(=O)cc23)cc1` yielded a z-score of -0.421. `CS(=O)(=O)N(CC(=O)NCCSCc1c(F)cccc1Cl)c1ccc2c(c1)OCO2` showed a z-score of 0.461. With `Fc1cccc(Cl)c1CSc1nnc(CN2CCOCC2)n1-c1ccccc1` the z-score was -0.0527. `O=C(CN(CCc1ccccc1)C(=O)CN1C(=O)COc2ccccc21)NCc1ccco1` was tested, and the z-score was 1.07. For `CCOc1ccc(-n2c(SCc3nc(-c4ccc(C)cc4)no3)nnc2-c2ccncc2)cc1`, the z-score was -0.127. Work on `COC(=O)c1c(C(C)=O)cnc2ccc(Br)cc12` yielded a z-score of -0.305. In the case of `COc1ccccc1-n1cnnc1SCC(=O)c1cc(C)n(Cc2cccs2)c1C`, the z-score was -0.41. Molecule `Cc1cc(N2C(=O)CC(C(C)c3ccccc3)C2=O)no1` (configuration not stated) has a z-score of -0.661. For `O=S(=O)(Nc1nc2ccccc2nc1-[n+]1ccccc1)c1ccc(Cl)cc1`, the z-score was 0.161. `Cc1cc(S(=O)(=O)N(Cc2ccc(C(C)C)cc2)CC2CCCO2)ccc1-n1cnnn1` (configuration not stated) showed a z-score of 1.01. Molecule `COc1cccc(-c2cc(C(=O)N3CCCc4ccccc43)no2)c1` has a z-score of -0.419. For `O=C(CSc1nc2ccccc2c(=O)n1NC(=O)Cc1ccccc1)NCc1ccccc1`, the z-score was 0.877. `COc1ccc(C(=O)CSc2nnc(Cn3cnc4ccccc43)o2)cc1` showed a z-score of 1.52. Molecule `CC1=CCC2C(=O)N(c3ccc(C)cc3)C(=O)C2C1` (configuration not stated) has a z-score of 0.0494. `O=C(CCn1nc(-c2ccccc2)c2ccccc2c1=O)N1CCN(c2ccccc2)CC1` showed a z-score of -0.421. With `CCNc1nc(Cl)nc(NCCOc2ccc(C)cc2)n1` the z-score was -0.221. `COc1cccc(/C=N/N2CCOCC2)c1O` gave a z-score of -0.354. For `CN(CC(=O)Nc1ccc(F)c(F)c1F)C(=O)/C=C/c1ccc(Cl)cc1`, the z-score was -0.265. Work on `Cc1cc(C)c2cc(CN(CCO)C(=O)Nc3ccc(F)cc3)c(=O)[nH]c2c1` yielded a z-score of -0.834. Work on `CCC(CC)C(=O)Nc1cccc(C(=O)Nc2ccc3c(c2)OCO3)c1` yielded a z-score of -0.631. With `O=C(NCc1ccccn1)c1ccc(NC(=O)c2ccco2)cc1` the z-score was 0.138. In the case of `Cc1ccc(C(=O)NNC(=O)CCC(=O)Nc2cc(C)on2)cc1`, the z-score was -0.0969. `CCOC(=O)c1cn(CC(=O)Nc2ccc3c(c2)OCCO3)nn1` gave a z-score of 0.293. `CCCS(=O)(=O)c1nc(S(=O)(=O)c2ccc(C)cc2)c(NCc2ccc3c(c2)OCO3)s1` showed a z-score of -0.1. With `Cc1cc(-c2nnc(-c3ccccc3)c(-c3ccccc3)n2)c(C)o1` the z-score was -0.159. `CCCCc1ccc(S(=O)(=O)NCCc2ccncc2)cc1` showed a z-score of 0.298. `Cc1nc2cc(NC(=O)NCc3ccco3)ccc2o1` showed a z-score of -0.15. `CC1(C)CC(=O)C=C(Nc2ccc(F)cc2)C1` gave a z-score of 0.643. In the case of `O=C(Cn1c(NCCO)nc2ccccc21)c1ccc(Cl)cc1`, the z-score was -0.664. For `C=CCNc1nc(Nc2ccc(OC)cc2)nc(OC)n1`, the z-score was -0.295. `CCC(=O)c1ccc(OCC(O)CNCc2ccc(F)cc2)cc1` (configuration not stated) gave a z-score of -0.0859. With `CC1(C)NC(=O)N(CCCCOc2ccc(Cl)cc2)C1=O` the z-score was -0.367. `CCOC(=O)c1ccc(N2NC(=O)/C(=C/c3ccc(OC(=O)c4ccco4)c(OC)c3)C2=O)cc1` was tested, and the z-score was -0.682. Work on `COC(=O)c1cc(NC(=O)CN(c2ccc(OC)cc2)S(=O)(=O)c2ccc(F)cc2)ccc1Cl` yielded a z-score of -0.143. `CCOC(=O)C1=C(C)NC(=O)NC1c1c(O)ccc2ccccc12` (configuration not stated) gave a z-score of -0.111. Molecule `Cc1ccc(S(=O)(=O)NC(=O)NCc2ccc(Cl)cc2)cc1` has a z-score of 0.0562. With `CCn1c(O)c(C=NCc2cccs2)c(=O)n(CC)c1=S` the z-score was 0.0793. For `COc1cc(/C=c2\sc3nc(=O)c(-c4ccccc4)nn3c2=O)ccc1OCCC(C)C`, the z-score was 0.00435. For `Cc1nc2ccccc2nc1N1CCC(C)CC1`, the z-score was -0.18. `CCOc1ccc(-n2c(Cc3cc(=O)[nH]c(=O)[nH]3)nnc2SCC(=O)OC)cc1` showed a z-score of 0.0852. In the case of `O=C(Nc1ncc(Cc2cccc(Cl)c2Cl)s1)c1ccc([N+](=O)[O-])cc1`, the z-score was 0.0306. For `O=c1c2ccccc2nc2n1C(CSCc1ccccc1)CS2` (configuration not stated), the z-score was -0.375. Work on `CC(C)c1ccc(C(O)c2cnc(C(C)C)n2C)cc1` (configuration not stated) yielded a z-score of -0.127. Molecule `Cc1ccc2cc(COC(=O)c3ccco3)c(=O)[nH]c2c1` has a z-score of -0.25. In the case of `CC(C)Cn1c(N)c(C(=O)COC(=O)c2ccc3c(c2)OCCO3)c(=O)n(C)c1=O`, the z-score was -0.2. With `O=C(O)COc1ccc(-c2nnn(Cc3ccccc3F)n2)cc1` the z-score was 1.3. For `Cc1cc(C)n(-c2nnc(C)n2/N=C/c2ccccc2F)n1`, the z-score was -0.35. For `O=C(O)c1cccc(CSc2ncccn2)c1`, the z-score was -0.149. `CCOC(=O)c1sc(N2C(=O)C(O)=C(C(=O)c3ccco3)C2c2ccccc2)nc1C` (configuration not stated) gave a z-score of -2.58. `Cc1ccc(-c2nn(CCC#N)cc2C=C(C#N)C#N)cc1` showed a z-score of 0.287. `CCOC(=O)c1sc2nc(N3CCOCC3)c3c(c2c1N)CC(C)(C)N(C)C3` gave a z-score of 0.887. With `CCOC(=O)c1c(C)[nH]c(C(=O)COC(=O)C2CC2C)c1C` (configuration not stated) the z-score was -0.868. Molecule `Cc1ccc(C)c2nc(SCC(=O)NCc3cccs3)c(C#N)cc12` has a z-score of -0.185. With `Cc1cccc(C(=O)O/N=C2\CCSc3ccc(C)cc32)c1` the z-score was -0.368. Molecule `CCOC(=O)/C=C1\SCC(=O)N1CC(=O)NC(c1ccccc1)c1ccccc1` has a z-score of -0.519. With `Cc1cccc(C)c1OC(=O)CSc1nnc(-c2ccccc2O)o1` the z-score was 0.0686. Work on `O=C(O)c1cc(NCc2ccc3c(c2)OCO3)ccc1N1CCOCC1` yielded a z-score of 0.643. In the case of `COc1ccc(OC)c(C2/C(=C(/O)c3ccccc3)C(=O)C(=O)N2Cc2ccco2)c1` (configuration not stated), the z-score was -0.483. For `Cc1ccc(OCCCNCCO)c(Br)c1`, the z-score was -0.432. Molecule `COc1ccc(CN2CC(C(=O)NCc3cccc(OC)c3)CC2=O)cc1` (configuration not stated) has a z-score of -0.676. For `O=C(CN1C(=O)C2C3C=CC(C3)C2C1=O)NCc1ccco1` (configuration not stated), the z-score was 0.028. Work on `Cc1ccc(S(=O)(=O)N(Cc2cc3cc4c(cc3[nH]c2=O)OCCO4)CC2CCCO2)cc1` (configuration not stated) yielded a z-score of 0.011. For `CCOc1ccccc1CNC(=O)c1nn(CC)cc1[N+](=O)[O-]`, the z-score was -0.235. With `O=C(NCc1ccco1)c1sc2cc(Cl)ccc2c1Cl` the z-score was 0.323. `COC(=O)c1sc(-c2ccccc2)cc1NC(=O)c1ccccc1` gave a z-score of -0.662. For `COc1ccc(C(=O)N2CCN(C(C)=O)CC2)cc1S(=O)(=O)NCc1ccc(Cl)cc1`, the z-score was -0.145. For `CC(NC(=O)C1CC=CCC1C(=O)O)C1CC2CCC1C2` (configuration not stated), the z-score was active: -4.35. With `CCOC(=O)C(C(=O)NCc1ccc(C)cc1)c1ncc(C(F)(F)F)cc1Cl` (configuration not stated) the z-score was 1.62. `CC(=O)Nc1ccc(NC(=O)CSc2nccn2Cc2ccccc2)cc1` was tested, and the z-score was 2.89. `CCN(C(=O)COC(=O)c1c2c(nc3ccccc13)/C(=C/c1ccccc1)CC(C)C2)C1CCS(=O)(=O)C1` (configuration not stated) was tested, and the z-score was -0.169. `COc1cccc(C(=O)CN(C(=O)c2ccc(Cl)c(Cl)c2)N2C(=O)c3ccccc3C2=O)c1` was tested, and the z-score was -0.134. `Cc1nc2c(Br)c3nc(C(F)(F)F)[nH]c3c(Br)c2[nH]1` was tested, and the z-score was -0.486. With `COC(=O)c1ccc(COc2ccc3c(C)c(C)c(=O)oc3c2C)o1` the z-score was 1.08. Work on `CCN(C(=O)CSc1ncccc1C(=O)OC(C)C)c1cccc(C)c1` yielded a z-score of -0.441.
